Test results published in the BET-seq Pho4 binding data (Le et al. 2018).
The other results are listed elsewhere or left out. The energies were worked out here from pooled read counts, against the library average; single values are noisy.

These sequences were tested against T1, Pho4 (S. cerevisiae) (UniProt P07270) (assay: relative binding free energy (BET-seq); higher = weaker binding). Settings: reference: library average.
T1 sequence: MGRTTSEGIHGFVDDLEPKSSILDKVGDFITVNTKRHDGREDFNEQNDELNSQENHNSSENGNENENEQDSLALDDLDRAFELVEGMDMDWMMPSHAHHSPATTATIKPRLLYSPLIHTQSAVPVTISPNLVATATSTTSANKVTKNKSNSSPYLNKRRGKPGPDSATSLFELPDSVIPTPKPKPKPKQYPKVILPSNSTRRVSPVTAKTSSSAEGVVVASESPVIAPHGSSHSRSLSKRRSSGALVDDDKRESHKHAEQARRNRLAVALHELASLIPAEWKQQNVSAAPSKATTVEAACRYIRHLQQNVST

| Sequence | relative binding free energy [kcal/mol] |
| --- | --- |
| ATTGGCACGTGGAGTT | -0.05 |
| GGATGCACGTGCGTTG | -0.05 |
| GAGAACACGTGGGGAG | 0.01 |
| AGTATCACGTGTTGTG | 0.11 |
| AATAACACGTGGGTTA | -0.22 |
| TGTCACACGTGGGTCT | -0.14 |
| CGGGCCACGTGGTGGG | -0.1 |
| GGGTTCACGTGGGGTT | 0.22 |
| AGGGGCACGTGTTCGT | -0.05 |
| ATATGCACGTGTGATG | -0.03 |
| AGGGCCACGTGGGTGT | -0.2 |
| GGGCGCACGTGTTCGT | 0.09 |
| GTTATCACGTGGCGAG | 0.32 |
| TTTGACACGTGACTTG | 0.06 |
| TTTGTCACGTGAATGC | 0.37 |
| AGGTTCACGTGTATTG | 0.14 |
| GGAGTCACGTGAAAGT | 0.41 |
| ATGGACACGTGGTAGC | 0.07 |
| ATGTTCACGTGATTAT | 0.35 |
| TTGAACACGTGGTGGC | 0.04 |
| CCTGGCACGTGGGGGT | -0.23 |
| CATAACACGTGGGGGG | -0.13 |
| GGTGGCACGTGGGCCA | -0.17 |

| Sequence | relative binding free energy [kcal/mol] |
| --- | --- |
| AGTTTCACGTGTGTGC | 0.37 |
| TGGAGCACGTGGAGGT | -0.09 |
| GGCTGCACGTGGGCGT | -0.13 |
| GGGGTCACGTGAAGGG | 0.3 |
| GATTTCACGTGATGCT | 0.3 |
| TGTGGCACGTGGGGTC | -0.16 |
| ACTTGCACGTGGGGGC | -0.16 |
| TGCGTCACGTGGAAGG | 0.03 |
| TTGGGCACGTGAATAG | 0.07 |
| ATAATCACGTGTTTGC | 0.08 |
| AGGCACACGTGTATGT | 0.01 |
| GGTGTCACGTGTAGCT | 0.14 |
| GGTTACACGTGATTAA | 0 |
| TTTAGCACGTGCGTAT | -0.02 |
| TAGGTCACGTGGAGAG | 0.18 |
| ATCATCACGTGGTGTG | 0.09 |
| ATGTACACGTGGTCGG | 0.05 |
| TGGAGCACGTGAGCAG | 0.11 |
| ATGGGCACGTGGGCGG | -0.23 |
| GCGCTCACGTGTTTGG | 0.13 |
| TTGGTCACGTGCATTT | 0.08 |
| TGAAGCACGTGATGTG | 0.08 |
| TAGTTCACGTGTCGAT | 0.2 |

| Sequence | relative binding free energy [kcal/mol] |
| --- | --- |
| TTTATCACGTGAGGCA | 0.33 |
| GAGGGCACGTGGCGGA | -0.07 |
| CGTGGCACGTGATAAA | 0.09 |
| GGGGACACGTGAGGTG | 0.27 |
| TAGTACACGTGTTGTA | 0.07 |
| GTGGGCACGTGCGAGT | -0.14 |
| CTAGGCACGTGAAGGT | 0.13 |
| TTTAACACGTGGAATA | 0.09 |
| GTTGTCACGTGGACAT | 0.08 |
| GTCGGCACGTGGGTGG | -0.14 |
| GAAGACACGTGGGTTA | -0.09 |
| ACGGTCACGTGGGGAG | -0.06 |
| GTAAGCACGTGCGAGT | -0.02 |
| TTTGGCACGTGTCTTC | -0.02 |
| GAATGCACGTGCGAGT | 0.06 |
| AATTTCACGTGAATAT | 0.39 |
| AGGGTCACGTGTGCCG | -0.03 |
| AGTTTCACGTGGCTGT | 0.32 |
| TTGTTCACGTGGGATT | 0.23 |
| TACTTCACGTGGATAT | 0.25 |
| GTTATCACGTGAGTTG | 0.35 |
| GTGGGCACGTGTCATG | 0.01 |
| TCGATCACGTGGGGAT | -0.04 |

| Sequence | relative binding free energy [kcal/mol] |
| --- | --- |
| ATGGACACGTGGTAAT | 0.04 |
| TATATCACGTGTGTCA | 0.01 |
| AGGATCACGTGGCGAG | 0.06 |
| CGGTGCACGTGTATCG | 0.04 |
| CGGATCACGTGGGTGG | -0.02 |
| GTATGCACGTGTCTGG | 0.11 |
| CCAGGCACGTGGATGG | -0.1 |
| GGGCGCACGTGGGTTA | -0.1 |
| GTGTTCACGTGAGGAG | 0.39 |
| GCTTTCACGTGGATAG | 0.43 |
| TAGTTCACGTGTGGCT | 0.34 |
| TGATACACGTGAATGT | 0.25 |
| GTGGTCACGTGGGATA | -0.03 |
| ATAATCACGTGGGCAG | 0 |
| GGGTTCACGTGGGGCT | 0.31 |
| TCAGGCACGTGCGTTG | -0.23 |
| TTTCACACGTGTTGAT | 0.02 |
| TCTGGCACGTGCATGT | -0.05 |
| TACTGCACGTGTTGTT | 0.04 |
| AGAGACACGTGGCGGT | -0.05 |
| TGTGGCACGTGGTAGT | -0.18 |
| GTAGTCACGTGGTATG | 0.17 |
| ATAGTCACGTGCTTGA | 0.12 |

| Sequence | relative binding free energy [kcal/mol] |
| --- | --- |
| GGATGCACGTGCTTGA | 0.04 |
| TTTGGCACGTGACAGA | 0.11 |
| TAGTTCACGTGTTGAG | 0.31 |
| TTTTTCACGTGGGCTA | 0.23 |
| TGAGGCACGTGGGAGT | -0.22 |
| CTTGTCACGTGGTAAG | 0.14 |
| TGGGGCACGTGTAAAC | 0.14 |
| ATGATCACGTGGTGAT | -0.05 |
| GAATACACGTGGTGTT | 0.1 |
| GGACGCACGTGTTTGG | 0.03 |
| AATGTCACGTGGGTGC | -0.1 |
| GGGGTCACGTGGTAGC | 0.1 |
| TCTATCACGTGCTAGT | 0.25 |
| TTGGACACGTGTCGTA | 0.13 |
| TCCGTCACGTGGTGTG | -0.09 |
| ACGGGCACGTGGGGGA | -0.13 |
| TTTGGCACGTGGAATT | -0.06 |
| GGGGGCACGTGCTGTC | -0.19 |
| TGATACACGTGGCTGG | -0.05 |
| CTAAGCACGTGTGTGT | -0.03 |
| TTTTACACGTGAGGGG | 0.4 |
| TTTGTCACGTGAGACG | 0.32 |
| GGATCCACGTGGGGTG | -0.19 |
